From patent US20230002478A1 (TWIST BIOSCIENCE, published 2023) come the findings set out here.

Test [1] addresses biotinylated SARS-CoV-2 spike trimer, Delta (SARS-CoV-2). Put plainly: AlphaLISA, inhibition of ACE2-muFc / biotinylated spike complex. In general terms: Alpha assays give light when donor and acceptor beads are brought close together.
Test [2] deals with biotinylated SARS-CoV-2 spike trimer, Omicron (B.1.1.529) (SARS-CoV-2). The description is as above.

B1: bispecific monoclonal antibody 493-004 (bispecific antibody)
chain: EVQLVESGGGLVQPGGSLRLSCAASGFTFSPSWMGWFRQAPGKEREFVATINEYGGRNYADSVKGRFTISADNSKNTAYLQMNSLKPEDTAVYYCARVDRDFDYWGQGTLVTVSSGGGGS[no letters for human IgG1 Fc with C220S (EU numbers)]GGGSGGGGSASEVQLVESGGGLVQPGGSLRLSCAASGSTFSINAMGWFRQAPGKEREFVAGITSSGGYTNYADSVKGRFTISADNSKNTAYLQMNSLKPEDTAVYYCAADGVPEYSDYASGPVWGQGTLVTVSS
For B1, the IC50 (as a rule, the concentration that gives 50% inhibition) in test [1] worked out at 8.8 nM; in test [2], 9.04 nM.
